Among the data in PubChem BioAssay AID328 (DTP/NCI, 2004) are T/C values, retold here.

Toxic doses and inconclusive results are not listed. Not every entry of the source has a single result; some have several. The other results are left out here. An entry can have further records. Values given together are repeats across runs, samples, wells, individuals or studies. What stands in brackets tells the records apart. The letters are not those of the source and start again with each entry. Marks such as (2×) stand for listed records that agree. Starred links: 1 amine or outer side, 2 acyl side, 3 side chain; linkers in the order of their positions; H or OH if unused. Positions of bridges follow the written chain, without caps; N, C: chain ends. Non-standard residues stand in square brackets, D forms with d. Residues, ends and D or L forms follow the SMILES beside them. Chains are numbered I, II in the order given. Actinocin(9to1) = Cc1c2oc3c(C)ccc(C(=O)[*:1])c3nc-2c(C(=O)[*:2])c(N)c1=O; NMeV = CN[CH](C(=O)O)C(C)C; Aze = O=C(O)[CH]1CCN1; Sar = CNCC(=O)O

This assay concerns BDF1 mice, P388 leukemia ip, median survival T/C. As to the kind of experiment: NCI In Vivo Anticancer Drug Screen. Data for tumor model P388 Leukemia (intraperitoneal) in B6D2F1 (BDF1) mice. To be noted: endpoint: median survival time, higher = longer survival. In a few lines: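 Vehicle-dosed animals serve as the reference; survival of compound-dosed, tumour-implanted mice is divided by it.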

Setting [1] is: dose: 200.0 mg/kg/injection, schedule: Q01DX009 (ip), vehicle: Klucel (hydroxypropylcellulose) (HPC).
Setting [2] is: dose: 50.0 mg/kg/injection, schedule: Q04DX003 (ip), vehicle: saline.

With `Cc1noc(-c2ccc([N+](=O)[O-])o2)n1`, the T/C under setting [1] is 110 % of control and 189 % of control. Turning to `CCN1CC=CCC1`, the T/C under setting [2] is 95 % of control, 109 % of control, 150 % of control. As to `Cc1c2oc3c(C)ccc(C(=O)NC4C(=O)NC(C(C)C)C(=O)N5CCC5C(=O)N(C)CC(=O)N(C)C(C(C)C)C(=O)OC4C)c3nc-2c(C(=O)NC2C(=O)NC(C(C)C)C(=O)N3CCC3C(=O)N(C)CC(=O)N(C)C(C(C)C)C(=O)OC2C)c(N)c1=O` (stereo not given) (I: TV[Aze][Sar][NMeV] / II: TV[Aze][Sar][NMeV]; ester I:1-I:C, II:1-II:C; linker I:N-II:N via Actinocin(9to1); configuration not given here), under “dose: 75.0 micrograms/kg/injection, schedule: Q04DX003 (ip), vehicle: saline + alcohol”, the T/C is 120 % of control and 190 % of control. For the compound `O=NN(CCCl)C(=O)Nc1c[nH]c(=O)[nH]c1=O`, where the note is “dose: 0.39 mg/kg/injection, schedule: Q04DX003 (ip), vehicle: saline with Tween-80”, the T/C is 119 % of control and 150 % of control. On to `Oc1cccc2c1[O][Sb][O]2`, for which the T/C (dose: 12.5 mg/kg/injection, schedule: Q01DX009 (ip), vehicle: saline with Tween-80) was 112 % of control and 163 % of control. `CCc1ccc2c(c1)N(CCCN(CCCl)CCCl)c1ccccc1S2`: for the setting “dose: 25.0 mg/kg/injection, schedule: Q04DX003 (ip), vehicle: saline with Tween-80”, the T/C was 101 % of control, 103 % of control, 150 % of control. Take `COC(=O)c1[nH]c(=O)[nH]c(=O)c1F`: for the setting “dose: 50.0 mg/kg/injection, schedule: Q04DX003 (ip), vehicle: saline with Tween-80”, the T/C was 122 % of control and 190 % of control.

As for `COC(=O)[C@@H]1c2cc3c(c(O)c2[C@@H](OC2OC(C)C(OC)C(C)(OC)C2OC)C[C@]1(C)O)C(=O)c1c(O)cc2c(c1C3=O)O[C@H]1O[C@]2(C)[C@H](O)[C@@H](N(C)C)[C@@H]1O` (stereo not given in full), the T/C (dose: 0.5 mg/kg/injection, schedule: Q01DX010 (ip), vehicle: saline) is 109 % of control and 155 % of control. Turning to `Cc1cc(C)n(CO)n1`, the T/C (dose: 100.0 mg/kg/injection, schedule: Q01DX009 (ip), vehicle: Klucel (hydroxypropylcellulose) (HPC)) is 115 % of control and 155 % of control. With `COCCOC1=C(N2CC2)C(=O)C(OCCOC)=C(N2CC2)C1=O`, the T/C (dose: 0.5 mg/kg/injection, schedule: Q01DX009 (ip), vehicle: saline) was 104 % of control and 150 % of control. `c1cc(NC2CCCCC2)ccc1CN1CCOCC1`: for the setting “dose: 200.0 mg/kg/injection, schedule: Q01DX009 (ip), vehicle: other”, the T/C was 114 % of control and 157 % of control. For `OCCN1CCN(CCCN2c3ccccc3Sc3ccc(C(F)(F)F)cc32)CC1`, the T/C under setting [2] was 120 % of control and 166 % of control. With `CC(C)(CBr)C(=O)N1CCN(C(=O)C(C)(C)CBr)CC1`, the T/C (dose: 67.0 mg/kg/injection, schedule: Q04DX003 (ip), vehicle: Klucel (hydroxypropylcellulose) (HPC)) was 110 % of control, 186 % of control, 190 % of control. In the case of `CC(C)C1NC(=O)C(N)C(C)OC(=O)C(C(C)C)N(C)C(=O)CN(C)C(=O)C2CCCN2C1=O` (stereo not given) (tested in a mixture with another compound) (H-TVP[Sar][NMeV]; ester 1-C; configuration not given here), the T/C (dose: 0.15 mg/kg/injection, schedule: Q04DX003 (ip), vehicle: saline + alcohol) was 119 % of control and 195 % of control.

On to `COC(=O)[C@@]12OC[C@]34[C@H]([C@@H](O)[C@@H]1O)[C@@]1(C)CC(=O)C(O)=C(C)[C@@H]1C[C@H]3OC(=O)[C@H](OC(=O)c1ccccc1)[C@@H]24`, for which the T/C (dose: 2000.0 micrograms/kg/injection, schedule: Q01DX009 (ip), vehicle: saline + alcohol) is recorded as 105 % of control, 109 % of control, 150 % of control. In the case of `O=P(N1CCCCCC1)(N1CC1)N1CC1`, the T/C by setting is: (dose: 12.5 mg/kg/injection, schedule: Q04DX003 (ip), vehicle: saline) 100 % of control [sample A] and 158 % of control [sample B]; (dose: 37.0 mg/kg/injection, schedule: Q04DX003 (ip), vehicle: saline) 95 % of control and 300 % of control. In the case of `O=NN(CCCl)C(=O)Nc1ccc(NC(=O)N(CCCl)N=O)cc1`, the T/C under setting [1] is 118 % of control and 155 % of control.

On to `CCC[As](=O)(O)CCC`, for which the T/C (dose: 50.0 mg/kg/injection, schedule: Q01DX009 (ip), vehicle: saline) was 110 % of control and 150 % of control. Regarding `COc1cc(C=Nc2cc(Cl)c(Cl)c(Cl)c2)ccc1N(CCCl)CCCl`, the T/C is 109 % of control and 175 % of control (dose: 66.0 mg/kg/injection, schedule: Q04DX003 (ip), vehicle: Klucel (hydroxypropylcellulose) (HPC)); 100 % of control (2×) and 159 % of control (dose: 100.0 mg/kg/injection, schedule: Q04DX003 (ip), vehicle: Klucel (hydroxypropylcellulose) (HPC)). Consider `Cn1cnc([N+](=O)[O-])c1Sc1nc(N)nc2c1ncn2C1CC(O)C(CO)O1` (stereo not given), for which the T/C (dose: 100.0 mg/kg/injection, schedule: Q04DX003 (ip), vehicle: saline) is 109 % of control [sample A] and 154 % of control [sample B].

For the compound `O=C1NC(c2cccc3ccccc23)Nc2ccccc21` (stereo not given), the T/C (dose: 64.0 mg/kg/injection, schedule: Q01DX009 (ip), vehicle: Klucel (hydroxypropylcellulose) (HPC)) was 100 % of control and 186 % of control. `O=C(Nc1ccc(C2=NCCCN2)cc1)c1ccc(C(=O)Nc2ccc(C3=NCCCN3)cc2)nc1`: the T/C (dose: 2.0 mg/kg/injection, schedule: Q01DX009 (ip), vehicle: saline) was 115 % of control and 150 % of control; the T/C (dose: 6.6 mg/kg/injection, schedule: Q01DX009 (ip), vehicle: saline with Tween-80) is 109 % of control and 150 % of control. With `c1ccc2c(c1)C1=NCCN1c1ccccc1-2`, the T/C (dose: 26.6 mg/kg/injection, schedule: Q01DX009 (ip), vehicle: Klucel (hydroxypropylcellulose) (HPC)) was 104 % of control and 155 % of control. With `CC(=O)OC1CCC2(C)C3CCC4(C)C(=CCC5(C(=O)O)CCC(C)(C)CC45)C3(C)CCC2C1(C)C` (stereo not given), the T/C (dose: 1.0 mg/kg/injection, schedule: Q01DX009 (ip), vehicle: alcohol) is 119 % of control and 158 % of control.

With `ClCCN(CCCl)CCNc1ccnc2cc(Cl)ccc12`, for the setting “dose: 1.0 mg/kg/injection, schedule: Q01DX009 (ip), vehicle: saline”, the T/C is 122 % of control and 195 % of control. Regarding `BrCCN(CCBr)c1ccc2c3c(cccc13)-c1ccccc1-2`, the T/C by setting is: (dose: 4.12 mg/kg/injection, schedule: Q01DX009 (ip), vehicle: Klucel (hydroxypropylcellulose) (HPC)) 95 % of control and 165 % of control; (dose: 6.25 mg/kg/injection, schedule: Q01DX009 (ip), vehicle: Klucel (hydroxypropylcellulose) (HPC)) 91 % of control, 183 % of control, 191 % of control; (dose: 9.37 mg/kg/injection, schedule: Q01DX009 (ip), vehicle: Klucel (hydroxypropylcellulose) (HPC)) 120 % of control and 178 % of control.

As to `COC(=O)[C@@H](O)[C@](O)(CCC(C)C)C(=O)O[C@@H]1C(OC)=C[C@]23CCCN2CCc2cc4c(cc2[C@H]13)OCO4`, the T/C is, setting by setting: (dose: 1.0 mg/kg/injection, schedule: Q03HX016 (ip), vehicle: saline) 110 % of control and 177 % of control; (dose: 2.0 mg/kg/injection, schedule: Q03HX008 (ip), vehicle: saline) 120 % of control and 161 % of control; (dose: 4.0 mg/kg/injection, schedule: Q01DX006 (iv), vehicle: saline) 110 % of control and 155 % of control; (dose: 4.0 mg/kg/injection, schedule: Q01DX009 (oral), vehicle: saline) 120 % of control and 155 % of control; (dose: 8.0 mg/kg/injection, schedule: Q04DX003 (ip), vehicle: saline) 120 % of control and 150 % of control; (dose: 8.0 mg/kg/injection, schedule: Q08DX002 (ip), vehicle: saline) 100 % of control and 150 % of control. Besides, where the note is “dose: 16.0 mg/kg/injection, schedule: Q08DX002 (ip), vehicle: saline”, the T/C is 110 % of control and 155 % of control.

Take `CCN(CC)C(=O)c1ccc(C(Cl)(Cl)Cl)cc1`: the T/C (dose: 25.0 mg/kg/injection, schedule: Q01DX009 (ip), vehicle: saline with Tween-80) is 106 % of control and 160 % of control. Consider `CN(C)CC(Cl)CCl` (stereo not given), for which the T/C (dose: 100.0 mg/kg/injection, schedule: Q01DX009 (ip), vehicle: saline) is 111 % of control, 118 % of control, 154 % of control.
